# Reference: the supplement of paper PMC10037445
# Where “and” joins values, the source holds several entries; their conditions need not be identical. Identical values can stand only once. In all, about 2,900 compounds were measured (“IRF Lucia reporter activity, fold change vs agonist alone”: median about 0.9, highest 2% from about 2.8 on). Some of the results follow.
# How the values were obtained:
# RAW-Dual [1] = assay: IRF Lucia reporter activity, fold change vs agonist alone; higher = enhanced IRF activity; conditions: library stock concentration (final ~1000-fold dilution): 10 mM, agonist: MPLA (TLR4) […]
# Method in brief: (§1)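 RAW-Dual macrophages (50,000 cells/well in DMEM, 384-well plates) received 50 nL of library stock by pin tool, then a PRR agonist 1 h later, and were kept at 37 °C, 5% CO2. After 20 hours, supernatant was read for IRF by QuantiLuc luminescence and for NF-κB by QuantiBlue absorbance at 620 nm. Reporter activity is fold change over agonist-alone wells. Cytotoxic wells had IncuCyte confluency below 70% of agonist controls in both mask sets.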
# RAW-Dual [2] = assay: IRF Lucia reporter activity, fold change vs agonist alone; cytotoxicity flag (confluency mask): not cytotoxic; higher = enhanced IRF activity
# Method in brief: as §1
# RAW-Dual [3] = assay: IRF Lucia reporter activity, fold change vs agonist alone; cytotoxicity flag (confluency mask): cytotoxic (confluency <70% of control); higher = enhanced IRF activity
# Method in brief: as §1
# [4] = cytotoxicity flag (confluency mask): not cytotoxic
# [5] = agonist: 3'3'-cGAMP (STING) 10 ug/mL
structure (smiles),measurement,setting,value
CNC(=O)c1ccccc1Sc1ccc2c(/C=C/c3ccccn3)n[nH]c2c1,IRF Lucia reporter activity,RAW-Dual [1]; [4],0.404
CNC(=O)c1ccccc1Sc1ccc2c(/C=C/c3ccccn3)n[nH]c2c1 (library stock concentration (final ~1000-fold dilution): 10 mM),IRF Lucia reporter activity,RAW-Dual [2]; [5],0.0455
same,IRF Lucia reporter activity,RAW-Dual [2]; agonist: LPS (TLR4) 0.1 ug/mL,0.5
Cc1ccc(NC(=O)Nc2cc(C(F)(F)F)ccc2F)cc1Nc1ccc2c(c1)NC(=O)/C2=C\c1ccc[nH]1,IRF Lucia reporter activity,RAW-Dual [1]; [4],0.314
Cc1ccc(NC(=O)Nc2cc(C(F)(F)F)ccc2F)cc1Nc1ccc2c(c1)NC(=O)/C2=C\c1ccc[nH]1 (library stock concentration (final ~1000-fold dilution): 10 mM),IRF Lucia reporter activity,RAW-Dual [2]; [5],0.161
same,IRF Lucia reporter activity,RAW-Dual [2]; agonist: LPS (TLR4) 0.1 ug/mL,0.421
S=C=Nc1cccc(NC(=S)NCCCCNC(=S)Nc2cccc(N=C=S)c2)c1 (library stock concentration (final ~1000-fold dilution): 10 mM),IRF Lucia reporter activity,RAW-Dual [2]; [5],0.49
same,IRF Lucia reporter activity,RAW-Dual [2]; agonist: LPS (TLR4) 0.1 ug/mL,0.49
S=C=Nc1cccc(NC(=S)NCCCCNC(=S)Nc2cccc(N=C=S)c2)c1,IRF Lucia reporter activity,RAW-Dual [1]; [4],0.727
CCOc1cc(N2CCC(O)CC2)ccc1Nc1ncc2c(n1)N(C)c1ccccc1C(=O)N2C,IRF Lucia reporter activity,RAW-Dual [1]; [4],0.32
CCOc1cc(N2CCC(O)CC2)ccc1Nc1ncc2c(n1)N(C)c1ccccc1C(=O)N2C (library stock concentration (final ~1000-fold dilution): 10 mM),IRF Lucia reporter activity,RAW-Dual [2]; [5],0.518
same,IRF Lucia reporter activity,RAW-Dual [2]; agonist: LPS (TLR4) 0.1 ug/mL,0.253
CCOC(=O)C1=C(C)NC(C)=C(C(=O)OC)C1c1cccc([N+](=O)[O-])c1 (configuration not stated) (library stock concentration (final ~1000-fold dilution): 10 mM),IRF Lucia reporter activity,RAW-Dual [2]; [5],1.45
same,IRF Lucia reporter activity,RAW-Dual [2]; agonist: LPS (TLR4) 0.1 ug/mL,0.876
CCOC(=O)C1=C(C)NC(C)=C(C(=O)OC)C1c1cccc([N+](=O)[O-])c1 (configuration not stated),IRF Lucia reporter activity,RAW-Dual [1]; [4],0.949
NC1(C(=O)NC(CCO)c2ccc(Cl)cc2)CCN(c2ncnc3[nH]ccc23)CC1 (configuration not stated) (library stock concentration (final ~1000-fold dilution): 10 mM),IRF Lucia reporter activity,RAW-Dual [2]; [5],0.588
same,IRF Lucia reporter activity,RAW-Dual [2]; agonist: LPS (TLR4) 0.1 ug/mL,0.888
Cc1cc(N=Nc2ccc3c(c2)CCC(=O)N3)c(N)cc1O (library stock concentration (final ~1000-fold dilution): 10 mM),IRF Lucia reporter activity,RAW-Dual [2]; [5],0.15
same,IRF Lucia reporter activity,RAW-Dual [2]; agonist: LPS (TLR4) 0.1 ug/mL,0.146
COC1(c2sc3c(N4CCOCC4)nc(-c4cnc(N)nc4)nc3c2C)COC1 (library stock concentration (final ~1000-fold dilution): 10 mM),IRF Lucia reporter activity,RAW-Dual [2]; [5],0.61
same,IRF Lucia reporter activity,RAW-Dual [2]; agonist: LPS (TLR4) 0.1 ug/mL,0.751
COc1ccccc1OCCNCC(O)COc1cccc2[nH]c3ccccc3c12 (configuration not stated) (library stock concentration (final ~1000-fold dilution): 10 mM),IRF Lucia reporter activity,RAW-Dual [2]; [5],0.689 and 0.629
same,IRF Lucia reporter activity,RAW-Dual [2]; agonist: LPS (TLR4) 0.1 ug/mL,1.88 and 1.19
COc1cc2c(cc1OC)-c1cc3nc4ccccc4nc3n1C(C)(C)C2 (library stock concentration (final ~1000-fold dilution): 10 mM),IRF Lucia reporter activity,RAW-Dual [3]; [5],0.239
same,IRF Lucia reporter activity,RAW-Dual [3]; agonist: LPS (TLR4) 0.1 ug/mL,0.434
COc1cc2c(cc1OC)-c1cc3nc4ccccc4nc3n1C(C)(C)C2,IRF Lucia reporter activity,RAW-Dual [1]; cytotoxicity flag (confluency mask): cytotoxic (confluency <70% of control),0.191
Oc1cc(O)c2c(c1)OC(c1ccc(O)c(O)c1)C(O)[C@H]2c1c(O)cc(O)c2c1OC(c1ccc(O)c(O)c1)C(O)C2 (some centres not stated) (library stock concentration (final ~1000-fold dilution): 10 mM),IRF Lucia reporter activity,RAW-Dual [2]; [5],0.867
same,IRF Lucia reporter activity,RAW-Dual [2]; agonist: LPS (TLR4) 0.1 ug/mL,1.27
Nc1cccc(-c2cc3c(Oc4cccc(O)c4)ncnc3[nH]2)c1,IRF Lucia reporter activity,RAW-Dual [1]; [4],0.0799
Nc1cccc(-c2cc3c(Oc4cccc(O)c4)ncnc3[nH]2)c1 (library stock concentration (final ~1000-fold dilution): 10 mM),IRF Lucia reporter activity,RAW-Dual [2]; [5],0.138
same,IRF Lucia reporter activity,RAW-Dual [2]; agonist: LPS (TLR4) 0.1 ug/mL,0.037
COc1ccc(-n2nc(C(N)=O)c3c2C(=O)N(c2ccc(N4CCCCC4=O)cc2)CC3)cc1 (library stock concentration (final ~1000-fold dilution): 10 mM),IRF Lucia reporter activity,RAW-Dual [2]; [5],1.03
same,IRF Lucia reporter activity,RAW-Dual [2]; agonist: LPS (TLR4) 0.1 ug/mL,0.919
COc1ccc(-n2nc(C(N)=O)c3c2C(=O)N(c2ccc(N4CCCCC4=O)cc2)CC3)cc1,IRF Lucia reporter activity,RAW-Dual [1]; [4],0.925
COc1ccc(C(C)=O)c(O)c1 (library stock concentration (final ~1000-fold dilution): 10 mM),IRF Lucia reporter activity,RAW-Dual [2]; [5],0.95
same,IRF Lucia reporter activity,RAW-Dual [2]; agonist: LPS (TLR4) 0.1 ug/mL,1.02
COc1ccc(C(C)=O)c(O)c1,IRF Lucia reporter activity,RAW-Dual [1]; [4],0.954
COc1cc(OC)c(C=CS(=O)(=O)Cc2ccc(OC)c(NCC(=O)O)c2)c(OC)c1 (library stock concentration (final ~1000-fold dilution): 10 mM),IRF Lucia reporter activity,RAW-Dual [2]; [5],0.203
same,IRF Lucia reporter activity,RAW-Dual [2]; agonist: LPS (TLR4) 0.1 ug/mL,1.53
COc1cc(OC)c(C=CS(=O)(=O)Cc2ccc(OC)c(NCC(=O)O)c2)c(OC)c1,IRF Lucia reporter activity,RAW-Dual [1]; [4],1.79
COC1CC2CCC(C)C(O)(O2)C(=O)C(=O)N2CCCCC2C(=O)OC(C(C)CC2CCC(OC(=O)C(C)(CO)CO)C(OC)C2)CC(=O)C(C)C=C(C)C(O)C(OC)C(=O)C(C)CC(C)C=CC=CC=C1C (configuration not stated) (library stock concentration (final ~1000-fold dilution): 10 mM),IRF Lucia reporter activity,RAW-Dual [2]; [5],0.69
same,IRF Lucia reporter activity,RAW-Dual [2]; agonist: LPS (TLR4) 0.1 ug/mL,2.98
